{"source": "PubChem BioAssay AID651820", "about": "(National Center for Advancing Translational Sciences (NCATS), 2012)", "note": "Screen size: about 340,000 compounds; about 12,000 (3.5%) were called active. This list was built around the results that the source calls inconclusive (neither active nor inactive); the mix of calls is not that of the screen. Calls follow the shape of the dose curve; as a rule, active = well fitted inhibition curve with a large enough effect; inconclusive = small, poorly fitted or top-dose-only effect, or another doubt; inactive = no such curve, though single readings can be large or run the other way. Potencies of inconclusive entries are left out as doubtful fits. Potency is read from the fitted curve at half-maximal effect; tags tell the direction and shape of the fitted curve."}
{"assay": "qHTS Assay for Inhibitors of Hepatitis C Virus (HCV)", "conditions": "Huh7.5.1 HCVcc-Cre (HCVcc is cell-culture hepatitis C virus) infection, luciferase reporter, 44 h; series mostly up to 41.8 µM", "method_in_brief": "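Compounds are dispensed onto cells plated 4 h earlier at 1,000 per well, with HCVcc-Cre virus (about 0.5 moi) added next. Following 44 h of culture, luminescent signal is measured for 15 sec after 15 min with substrate at room temperature.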"}
{"smiles": "COC(=O)c1[nH]c2ccccc2c1NC(=O)CN1CCN(C/C=C/c2ccccc2)CC1", "Potency": "active: 11.2 µM"}
{"smiles": "CNCC(=O)Nc1ccc(OC(F)(F)F)cc1", "Potency": "inconclusive [inhibitor, partial curve]"}
{"smiles": "COCCCNC(=O)CN(c1cc(C(F)(F)F)ccc1Cl)S(C)(=O)=O", "Potency": "inactive"}
{"smiles": "c1ccc2c(c1)nc(NCc1ccc3c(c1)OCO3)n2CCN1CCOCC1", "Potency": "inactive"}
{"smiles": "NS(=O)(=O)c1ccc(NC(=O)/C=C/c2ccccc2[N+](=O)[O-])cc1", "Potency": "inconclusive [inhibitor, full curve]"}
{"smiles": "CCOc1ccc(CCNC(=O)COc2cccc(-n3cnnn3)c2)cc1OCC", "Potency": "inconclusive [inhibitor, single point]"}
{"smiles": "COC(=O)c1cc(-c2c(C)nn(-c3ccccc3)c2C)n[nH]1", "Potency": "inconclusive [inhibitor, single point]"}
{"smiles": "COc1ccc(OC)c(NC(=O)CSCc2cnn(-c3ccccc3)c2-n2cccc2)c1", "Potency": "inconclusive [inhibitor, partial curve]"}
{"smiles": "CN(C)c1nc(SCc2ccccc2)nc(N2CCOCC2)n1", "Potency": "inconclusive [inhibitor, single point]"}
{"smiles": "CC1(C)Cc2c(c(N3CCOCC3)nc3sc4c(NCCN)ncnc4c23)CO1", "Potency": "active: 7.08 µM"}
{"smiles": "Cc1csc(N/N=C/c2ccccn2)n1", "Potency": "inconclusive [inhibitor, partial curve]"}
{"smiles": "Nn1cnnc1N/N=C/c1ccc(Cl)cc1Cl", "Potency": "inconclusive [inhibitor, single point]"}
{"smiles": "O=C(c1ccccc1)c1ccc2cc(O)ccc2c1", "Potency": "inconclusive [inhibitor, single point]"}
{"smiles": "O=C(c1ccco1)N1N=C(c2cccs2)CC1c1ccc(F)cc1", "note": "(centres undefined)", "Potency": "inconclusive [inhibitor, partial curve, poor fit]"}
{"smiles": "Cn1c(SCC(=O)c2ccc(F)cc2)ncc(C(=O)Nc2ccccc2)c1=O", "Potency": "inconclusive [inhibitor, single point]"}
{"smiles": "COc1ccc(NC(=S)N(CCCN2CCOCC2)Cc2ccco2)cc1", "Potency": "inactive"}
{"smiles": "COc1ccc(C(=O)Nc2cc3c4c(c2)C(C)C(=O)N4CCC3)cc1OC", "note": "(centres undefined)", "Potency": "inconclusive [inhibitor, partial curve, poor fit]"}
{"smiles": "CCCCSc1ncnc2[nH]ncc12", "Potency": "inconclusive [inhibitor, single point]"}
{"smiles": "CCN(CC)C(=O)[C@H]1C[C@H](CC(=O)NC/C=C(\\C)CCC=C(C)C)C(=O)N2CCc3c([nH]c4cc(CCC(=O)N(C)C)ccc34)[C@]12C", "Potency": "inconclusive [inhibitor, single point]"}
{"smiles": "O=C(/C=C/c1ccccc1Cl)c1ccccc(=O)c1O", "Potency": "inconclusive [inhibitor, partial curve, poor fit]"}
{"smiles": "OC(CNCCC1C=Nc2ccccc21)Cn1c2ccc(Cl)cc2c2cc(Cl)ccc21", "note": "(centres undefined)", "Potency": "inconclusive [inhibitor, partial curve]"}
{"smiles": "CCOC(=O)c1csc(N)c1-c1ccc([N+](=O)[O-])cc1", "Potency": "inconclusive [inhibitor, single point]"}
{"smiles": "Cc1cccc(NC(=S)N=Nc2c(O)n(CN3CCOCC3)c3ccccc23)c1C", "Potency": "inactive"}
{"smiles": "C=CCc1cc(Cl)ccc1OCCn1ccnc1", "Potency": "inconclusive [inhibitor, single point]"}
{"smiles": "Cc1cccc(CN2CCC(C(=O)Nc3ccc(Oc4cccnc4)cc3)CC2)c1", "Potency": "inconclusive [inhibitor, single point]"}
{"smiles": "Cc1ccc(C)c(NC(=O)CN(C)C(=O)C2CCN(C(=O)Nc3ccccc3)CC2)c1", "Potency": "inactive"}
{"smiles": "C[C@@H](C(=O)Nc1ccc2ccccc2c1)[C@H]1C[C@]1(C)[C@H](NC(=O)OCc1ccccc1)c1ccccc1", "Potency": "inconclusive [inhibitor, partial curve]"}
{"smiles": "COc1ccc(Cl)cc1NC(=O)CSc1nc(N2CCOCC2)nc(N2CCOCC2)n1", "Potency": "inconclusive [inhibitor, full curve, poor fit]"}
{"smiles": "CCCCC(=O)Nc1ccc(C(=O)Nc2nc(CC(=O)OCC)cs2)cc1", "Potency": "inconclusive [inhibitor, single point]"}
{"smiles": "O=C(CN1CCN(Cc2ccccc2)CC1)NNC(=O)c1ccc(Cl)cc1", "Potency": "inconclusive [inhibitor, single point]"}
{"smiles": "COc1ccc(-n2cnnc2SCC(=O)Nc2cc(C)on2)cc1", "Potency": "inconclusive [inhibitor, partial curve]"}
{"smiles": "CCOc1ccc(CNCCc2ccc(S(N)(=O)=O)cc2)cc1", "Potency": "inactive"}
{"smiles": "Cc1ccc(/C=C/C(=O)c2nc3ccccc3[nH]2)cc1", "Potency": "inconclusive [inhibitor, single point]"}
{"smiles": "O=C(NCc1ccc(-c2nc3ccccc3s2)cc1)c1ccco1", "Potency": "inconclusive [inhibitor, single point]"}
{"smiles": "O=[N+]([O-])c1cccc(-c2cnc3ccccc3n2)c1", "Potency": "inactive"}
{"smiles": "CC(=O)N1CCN(c2ccc(NC(=O)c3cc4ccccc4o3)cc2)CC1", "Potency": "inconclusive [inhibitor, single point]"}
{"smiles": "COC(=O)c1ccc(C(=O)NC(=S)Nc2nc3c(s2)CCCC3)cc1", "Potency": "inactive"}
{"smiles": "Cc1cccc(OCC(=O)N2CCN(C(=O)c3ccc([N+](=O)[O-])cc3)CC2)c1", "Potency": "inactive"}
{"smiles": "COc1ccc(N2C(=O)CC(N(C)CCc3ccc(OC)c(OC)c3)C2=O)cc1", "note": "(centres undefined)", "Potency": "inactive"}
{"smiles": "Cc1ccc(C(=O)c2cc(Br)ccc2N)cc1", "Potency": "inactive"}
{"smiles": "COc1ccc2nc(-c3ccc(N)cc3)[nH]c2c1", "Potency": "inactive"}
{"smiles": "CC(=O)Nc1ccc(S(=O)(=O)Nc2ccc(=O)n(Cc3ccc(Cl)c(Cl)c3)c2)cc1", "Potency": "inactive"}
{"smiles": "CCc1ccccc1NC(=O)c1ccc(-n2c(C)ccc2C)cc1", "Potency": "inconclusive [inhibitor, partial curve]"}
{"smiles": "Cc1ccccc1Nc1nc(N)nc(-c2oc3ccccc3c2C)n1", "Potency": "inactive"}
{"smiles": "C/C(=N\\NC(=O)Cc1csc(N2CCOCC2)n1)c1ccccc1", "Potency": "inconclusive [inhibitor, single point]"}
{"smiles": "O=C(NCc1ccccc1Cl)c1ccc2c(=O)n(CC3CCCO3)c(=S)[nH]c2c1", "note": "(centres undefined)", "Potency": "active: 6.31 µM"}
{"smiles": "CCOc1ccc(N(C(=O)c2snc(C(N)=O)c2N)C(C)C(=O)NC2CCCCC2)cc1", "note": "(centres undefined)", "Potency": "inconclusive [inhibitor, partial curve]"}
{"smiles": "Cc1ccc2c(c1)[C@H]1[C@H](CO2)[C@H](c2ccccc2)[C@]2(C)C(=O)Nc3ccc(F)cc3C(=O)N12", "Potency": "inconclusive [inhibitor, partial curve]"}
{"smiles": "Cc1ccc(NC(=O)COc2ccc(N(C)C(=O)C(C)(C)C)cc2)cc1S(=O)(=O)N1CCCCC1", "Potency": "inconclusive [inhibitor, full curve]"}
{"smiles": "CN(C)S(=O)(=O)c1cccc(-c2nnc(SCc3cc(Cl)cc4c3OCOC4)n2N)c1", "Potency": "inconclusive [inhibitor, partial curve]"}
{"smiles": "O=C(CN1CCOCC1)Nc1cc(Cl)ccc1Cl", "Potency": "inactive"}
{"smiles": "O=C(Nc1ccc(Cl)cc1C(=O)Nc1ccc(Br)cn1)c1ccco1", "Potency": "inconclusive [inhibitor, partial curve]"}
{"smiles": "O=C(Nc1nccs1)C12CC3CC(C1)CC(C(=O)Nc1nccs1)(C3)C2", "Potency": "inconclusive [inhibitor, single point]"}
{"smiles": "N#CC(C#N)=NNc1ccc(-n2ccc(C(F)(F)F)n2)cc1", "Potency": "active: 3.98 µM"}
{"smiles": "CCCCCCOc1ccc(/C=C/C(=O)N2CCOCC2)cc1OC", "Potency": "inactive"}
{"smiles": "CN(CC(=O)Nc1ccccc1Cl)C(=O)c1cccc(S(=O)(=O)N2CCN(c3ccccc3)CC2)c1", "Potency": "inconclusive [inhibitor, partial curve]"}
{"smiles": "CCN(C(=S)Nc1ccc(Oc2ccccc2)cc1)c1ccccc1", "Potency": "inconclusive [inhibitor, single point]"}
{"smiles": "CCC(=O)c1cn(CC(=O)Nc2cccc(C)c2C)c2ccccc12", "Potency": "inconclusive [inhibitor, single point]"}
{"smiles": "N#Cc1ccc(C(=O)OCc2cccc(S(=O)(=O)N3CCOCC3)c2)cc1", "Potency": "inconclusive [inhibitor, full curve, poor fit]"}
{"smiles": "O=C(N/N=C(\\c1ccccc1)c1cccnc1)c1cccc(F)c1", "Potency": "inconclusive [inhibitor, full curve]"}
{"smiles": "COc1ccc(CCNC(=O)[C@H](C)N2C(=O)N3CCc4c([nH]c5ccccc45)[C@@]3(C)C2=O)cc1", "Potency": "active: 4.47 µM"}
{"smiles": "Cc1ccc(Cl)cc1N1CCN(C(=S)NCc2ccco2)CC1", "Potency": "inconclusive [inhibitor, single point]"}
{"smiles": "O=C(Nc1cc2c3c(c1)CC(=O)N3CCC2)c1ccc(Br)cc1", "Potency": "inactive"}
{"smiles": "Cc1cc(-n2c(SCC(=O)NCc3cccs3)nc3n[nH]c(C)c3c2=N)ccc1Cl", "Potency": "inconclusive [inhibitor, partial curve]"}
{"smiles": "O=C(Nc1nnc(-c2ccco2)s1)c1ccccc1", "Potency": "inactive"}
{"smiles": "COc1ccc(CCN(Cc2cccs2)S(=O)(=O)c2ccc(S(=O)(=O)N3CCCCCC3)cc2)cc1OC", "Potency": "inconclusive [inhibitor, single point]"}
{"smiles": "CC(=O)N(C)c1nc(-c2ccc(Cl)cc2)cs1", "Potency": "inconclusive [inhibitor, single point]"}
{"smiles": "O=C(CC1C(=O)NCCN1Cc1cccc(C(F)(F)F)c1)NCCc1cnccn1", "note": "(centres undefined)", "Potency": "inactive"}
{"smiles": "COc1ccc(/C=C/C(=O)Nc2c(C)nn(C)c2C)cc1COc1ccc(Cl)cc1Br", "Potency": "inconclusive [inhibitor, full curve]"}
